Test results reported in PubChem BioAssay AID1240 (Sanford-Burnham Center for Chemical Genomics, 2008).
About 800 (1.6%) of roughly 50,000 compounds showed an effect of 50% or more. Some of the results follow.

The compounds below were run against Bcl-2-like protein 10 (Homo sapiens) (UniProt Q9HD36) (assay: TR3 peptide-Bcl-B binding displacers, biochemical primary FP assay, phenotype converters (AID 1240;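 further: 0% = Bcl-B with tracer peptide and DMSO and 100% = tracer peptide lacking Bcl-B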)). Settings: GST-Bcl-B / FITC-TR3 peptide fluorescence polarization; stronger effect = higher value; compound at 3.75 mg/L.
Chain of UniProt Q9HD36 (Q9HD36 whole entry, looked up): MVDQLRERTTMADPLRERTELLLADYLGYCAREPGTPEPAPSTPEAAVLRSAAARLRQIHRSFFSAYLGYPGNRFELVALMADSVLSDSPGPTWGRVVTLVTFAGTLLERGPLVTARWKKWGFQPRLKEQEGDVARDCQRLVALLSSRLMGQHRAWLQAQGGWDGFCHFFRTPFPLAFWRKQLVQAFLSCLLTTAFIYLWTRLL

Structure (SMILES)	displacement [%]
CCCCC/C=C/C(=O)Nc1cccc2ccccc12	9.2
O=S(=O)(Nc1cccc(-c2nc3ccccc3[nH]2)c1)c1ccccc1	12.1
CC(CNC(=O)c1ccc(Br)cc1)CN(C)C (centres undefined)	1.7
O=C(Nc1nc2ccccc2n1Cc1ccc(Cl)cc1)c1ccc(Cl)cc1	6.4
O=C(CSc1cc(Cl)ccc1Cl)Nc1cccc(Cl)c1	11.5
Cc1c(/C=C/c2nc3ccccc3c(=O)n2C)c2ccccc2n1C	3
COc1ccc(NC(=O)C2CCC2)cc1	-0.9
COc1cc(NC(=O)COc2cccc(Cl)c2)c(OC)cc1Cl	-7.8
Cc1ccccc1NC(=O)/C=C/c1ccc([N+](=O)[O-])cc1	-5.6
CCN(CC)CCN1C(=O)C(O)=C(C(=O)/C=C/c2ccccc2)C1c1ccc(OC)cc1 (centres undefined)	5.2
CCCNC(=O)c1c(NC(=O)c2cccc(C)c2)sc2c1CCCC2	-5.6
O=C(Nc1ccccc1C(=O)Nc1ccc(Cl)cc1)c1cccs1	3
Cc1ccc(-c2cc(C(F)(F)F)n3ncc(C(=O)N4CCN(C)CC4)c3n2)cc1	-8.8
Fc1ccc(C2CC(c3cccs3)=NN2c2nc(-c3ccccc3)cs2)cc1 (centres undefined)	-19.7
CCCCN(/C=C/C(=O)c1ccccc1)S(=O)(=O)c1ccccc1	1.6
Nc1c(C(=O)Nc2ccccc2)sc2nc3c(cc12)CCC3	8.2
O=S(=O)(Nc1cccnc1)c1ccc(Br)c2ccccc12	-7.4
O=C(NC(=S)Nc1ccc(-c2nc3ncccc3o2)cc1)c1ccco1	112
CC1=NN(C(=O)Cc2ccccc2)C(O)(c2ccc(Br)cc2)C1 (centres undefined)	-1.1
O=C(COc1ccc(Br)cc1)Nc1ccccc1Cl	1.4
CSCCC(/C(O)=C(\C#N)c1nc2ccccc2[nH]1)N1C(=O)c2ccccc2C1=O (centres undefined)	-3.7
CC(=O)c1cccc(NC(=O)Cn2cnc([N+](=O)[O-])n2)c1	10

Structure (SMILES)	displacement [%]
COc1cc(/C=C2\C(=O)N(c3ccc(S(N)(=O)=O)cc3)N=C2C)ccc1OCc1ccccc1	18.3
Cc1sc(NC(=O)c2cc(Cl)ccc2[N+](=O)[O-])nc1-c1ccccc1	-7.7
O=C1NC(=S)N/C1=C\c1ccc(-c2cccc([N+](=O)[O-])c2)o1	10.5
CC1CC2(C)Oc3ccccc3C3OCC1(COC(=O)Nc1ccccc1)C(C)C32 (centres undefined)	10
CCOc1cccc(C(=O)Nc2scc(-c3ccc(F)cc3)c2C(=O)OC)c1	-10.6
C/C(CC(=O)NC12CC3CC(CC(C3)C1)C2)=N\NC(=O)c1ccc(-c2ccccc2)cc1	-7.5
CC(=O)Nc1cccc(Nc2nc3ccccc3nc2NS(=O)(=O)c2ccc(Cl)cc2)c1	12.2
O=C1NC(=S)N/C1=C/c1ccc(Sc2ccccc2)o1	-50
CN(C)c1ccc(C(c2ccc(N(C)C)cc2)(c2ccc(N(C)C)cc2)C(F)(F)F)cc1	-11.3
CCOC(=O)c1ccccc1NC(=O)CN(c1ccccc1OC)S(=O)(=O)c1ccccc1	5
COc1ccc(NC(=O)CSc2nc3ccccc3[nH]2)c(OC)c1	10.3
CC(C)c1ccc(NC(=O)CN(c2ccc(Br)cc2)S(C)(=O)=O)cc1	2.2
Clc1ccc(N2CCN(/N=C/c3ccc(Cl)cc3Cl)CC2)cc1	-4.7
CCOC(=O)c1c(NC(=O)c2ccccc2F)sc2c1CCCCC2	11.4
O=C(Nc1cccc(Br)c1)Nc1ccc2nccnc2c1	9.4
CCc1ccc2oc(-c3cccc(NC(=O)c4ccccc4I)c3)nc2c1	-6.2
COc1ccc(NC(=O)c2nn3c(c2Br)NC(c2cccs2)CC3C(F)(F)F)c(OC)c1 (centres undefined)	3.9
CCCn1c(SCc2nc3ccccc3[nH]2)nc2ccccc21	1.4
Cc1ccc2nc(-c3ccc(O)cc3)sc2c1	12.7
CCOc1ccc(NC(=O)c2c(NC(=O)c3ccc(C)cc3)sc3c2CCC3)cc1	-0.8
Cc1ccccc1CC(CC(=O)O)C(=O)O (centres undefined)	10.6
Cc1cc(NC(=O)C2CC3CCC2C3)no1 (centres undefined)	6.8

Structure (SMILES)	displacement [%]
COC(=O)c1ccc(-n2ncnc2-c2ccc(OCc3ccccc3)c(OC)c2)cc1	5.3
COc1cc(C2Nc3ccccc3NC3=C2C(=O)CC(C)(C)C3)cc([N+](=O)[O-])c1O (centres undefined)	8.2
CCCC1=C(C(=O)OCC)C(c2ccc(OC)cc2OC)NC(=O)N1 (centres undefined)	-0.7
CC1(C)CC(=O)C2=C(C1)OC(N)=C(C#N)C21CCCCC1	34.8
Cc1cc(CN2CCOCC2)oc1C(=O)O	-14.9
CCOC(=O)c1sc(NC(=O)/C=C/c2ccc3c(c2)OCO3)c(C(=O)OCC)c1C	10.6
O=C(NN1CCOCC1)c1sc2ccccc2c1Cl	7.8
O=C1NC(=Nc2ccccc2Cl)S/C1=C/c1cc(Br)cc(Cl)c1O	-59.8
COc1cc(C(=O)N2CCN=C2c2ccccc2)cc(OC)c1OC	-3.1
Cc1cccc(N2CCN(S(=O)(=O)c3ccccc3)CC2)c1	-4.2
COc1ccc(CN2CCN(C(=O)c3ccccc3OC)CC2)cc1OCc1ccccc1	-12.7
CCOc1ccc(C(=O)Nc2cc3nn(-c4ccc(C)cc4)nc3cc2C)cc1	3.8
Cc1onc(-c2c(F)cccc2Cl)c1C(=O)NCC1COc2ccccc2O1 (centres undefined)	-6.5
CCCN(C=O)/N=C/c1ccc(Cl)cc1	3
COc1ccc(C(=O)Nc2sc3c(c2C(N)=O)CCCCCC3)cc1OC	-3.4
CCOC(=O)c1c(NC(=O)c2ccc(S(=O)(=O)N3CCOCC3)cc2)sc(C)c1C	2.5
CCN(CC)c1ccc(/C=N/NC(=O)Cn2nnc(-c3ccccc3)n2)c(O)c1	-12.8
COC(=O)c1ccccc1P(C)(C)=O	1
Clc1ccc(-c2nc(N3CCOCC3)c3ccccc3n2)c(Cl)c1	18.4
CN(C)c1ccc(/C=N/NC(=O)c2cc(=O)[nH]c3ccccc23)cc1	-1.7
O=C(Nc1c[nH]c(=O)[nH]c1=O)c1ccc2c(c1)C(=O)N(c1ccc([N+](=O)[O-])cc1)C2=O	-3.2
CCOc1ccc(C(=O)Nc2cccc(S(N)(=O)=O)c2)cc1Br	-1.1

Structure (SMILES)	displacement [%]
O=C(Nc1ccc(F)cc1)Nc1ccc(I)cc1	4.2
CCOC(=O)C1=C(C)N=c2s/c(=C\c3ccc(C)o3)c(=O)n2C1c1ccc(SC)cc1 (centres undefined)	65.3
O=C1c2cc3ccccc3cc2C(=O)N1c1ccc(O)cc1	0.2
O=C(COc1ccccc1[N+](=O)[O-])N/N=C/c1cc(O)c(Br)cc1Br	3.1
O=C(Nc1cccc(C(F)(F)F)c1)C1C2CC/C=C\CCC21 (centres undefined)	-0.9
CC1=C(C(=O)OCC2CCCO2)C(c2ccccc2Br)NC(=O)N1 (centres undefined)	5.9
N#C/C(=C/c1cc(Cl)c(O)c(Cl)c1)C(=O)Nc1cccc(Br)c1	-28.2
CCOc1ccc(Cl)cc1/C=C1/SC(=S)N(C)C1=O	0.7
CSCCC(C(=O)O)N1C(=O)/C(=C/c2ccccc2Cl)SC1=S (centres undefined)	9.3
Oc1ccc(-c2cc(-c3ccc(O)cc3)nc(-c3ccccc3)n2)cc1	-1.5
COc1ccc(C2=N/C(=C/c3ccc([N+](=O)[O-])cc3)C(=O)N2c2ccc(F)cc2)cc1	10
O=C(CCN1C(=O)c2ccccc2C1=O)N1CCN(Cc2ccc(Cl)cc2)CC1	-15.4
Cc1ccc(OCCCN2CCN(C)CC2)c(C(C)(C)C)c1	-8
Nc1cccc(C(=O)/C=C/c2ccc(Cl)cc2Cl)c1	1
O=C(NCCc1ccccc1)c1nn2c(C(F)(F)F)cc(-c3ccccc3)nc2c1Br	0.8
CC(C)(C)c1ccc(OCC(O)CS(=O)(=O)Cc2ccc(Cl)cc2)cc1 (centres undefined)	8.5
Cc1cc(N2CCOCC2)nc(N2CCOCC2)n1	15.9
CC(C)N(Cc1ccccc1)C(=O)CN1C(=O)c2ccccc2C1=O	11.1
COc1ccc(CC(=O)Nc2ccc(C)c(C)c2)cc1OC	1.4
O=[N+]([O-])c1cc(Cl)ccc1NCCCNS(=O)(=O)c1ccccc1	6.9
COc1ccccc1N1CCN(C(=O)COc2ccc(C)cc2Br)CC1	6.1
Cc1ccc2[nH]c(O)c(N=Nc3ccc([N+](=O)[O-])cc3[N+](=O)[O-])c2c1Br	1.4

Structure (SMILES)	displacement [%]
Cc1cc2c(cc1C)N(C(=O)CSc1nccn1C)C(C)(C)c1ssc(=S)c1-2	13.1
Cc1cc(C)n2c(SCCc3ccccc3)nnc2n1	-17.7
COc1cccc(OC)c1OCCOCCOc1ncnc2ccccc12	-12.7
CCc1ccccc1NC(=O)/C(C#N)=C/c1cn(CC(=O)Nc2ccccc2)c2ccccc12	-26.1
O=C(Nc1ccc2ccccc2c1)c1ccccc1C(F)(F)F	-2
Cc1cc(C=O)c(C)n1-c1ccc2ccccc2c1	7.4
COCCCNC(=O)C(=O)Nc1ccc(OC)c(Cl)c1	13.1
COc1ccc(/C=C(\C#N)c2nc(-c3ccc(C)cc3)cs2)cc1	4.5
COC(=O)C1=C(C)N=c2s/c(=C\c3ccccc3Cl)c(=O)n2C1c1cccs1 (centres undefined)	84.9
N#C/C(=C\c1ccc(-c2ccc(C(=O)O)cc2)o1)C(=O)NCc1ccco1	-27.8
O=C1CCCC2=C1C(c1ccc(Cl)cc1Cl)Nc1ccccc1N2 (centres undefined)	-3.3
CCCOC(=O)c1c(NC(=O)/C=C/C(=O)O)sc2c1CCCC2	-9.1
C=CCN1C(=O)/C(=C\c2ccc(-c3cccc(C(=O)O)c3)o2)C(=O)NC1=S	-50.7
COc1ccc(C=NNC(=O)Cn2nnc3ccccc32)c(OC)c1	-1.3
CC(=O)Nc1cccc(NC(=O)c2ccc(C)cc2)c1	3.2
COC(=O)C1=C(C)NC2=C(C(=O)CCC2)C1c1ccc2c(c1)OCO2 (centres undefined)	10.5
O=C1C(=Cc2ccc(I)o2)C(=O)c2ccccc21	37.1
COc1ccccc1CNC(=O)c1ccc(F)cc1	-4.4
COCCCNC(=O)/C(=C/c1ccc(-c2ccc(Br)cc2)o1)NC(=O)c1ccccc1	-6.6
COc1ccc(OC)c(CNCc2ccc3c(c2)OCO3)c1	-0.1
COc1ccc(C=O)cc1OCc1ccccc1	13.9
